The other results are listed elsewhere or left out.

The test concerns the target T1, MBP-FoxP1dN (Mus musculus, UniProt P58462 326-579).
T1 sequence: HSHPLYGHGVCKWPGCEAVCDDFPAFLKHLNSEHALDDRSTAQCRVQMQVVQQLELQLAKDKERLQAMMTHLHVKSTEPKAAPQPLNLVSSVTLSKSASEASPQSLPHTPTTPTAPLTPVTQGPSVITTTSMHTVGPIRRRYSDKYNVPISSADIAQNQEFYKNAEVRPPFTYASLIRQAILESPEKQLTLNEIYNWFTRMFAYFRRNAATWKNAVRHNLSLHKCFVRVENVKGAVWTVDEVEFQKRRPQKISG
As to the kind of experiment: PD-seq (MBP pull-down with sequencing); 20 mM Tris-HCl pH 7.5, 100 mM NaCl, 1.5 mM MgCl2, 0.4 uM protein, 0.1 uM dsDNA library, 30 min, room temperature, amylose pull-down; high values mean tight binding. Particulars: protein: recombinant; tags: His6-MBP; chain copies: 2; dsDNA, one strand shown. An outline of the steps:
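His6-MBP-tagged mouse FoxP3 or FoxP1 fragment lacking the N-terminus, expressed in E. coli, was mixed at 0.4 µM with 0.1 µM Klenow-filled double-stranded degenerate DNA library. Incubation was 30 min at room temperature in Tris pH 7.5 buffer with NaCl and MgCl2. Complexes were caught on amylose resin and washed three times; DNA was released with proteinase K, PCR-barcoded and Illumina-sequenced. Binding is reads-per-million enrichment, pull-down over input, with replicates pooled.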
Regarding “GATGATTGTTCTCCCAGCTGATGAATTCCTTTAGTCGAGTAAACAAATTTTCCTAATCTTTCTGTTCAAGCGCCATCTAC”, the binding signal is 0.819 RPM ratio (pull-down/input).

As for “GATGATTGTTCTCCCAGCTGATGAATTCCTAACGTCGAGTAAACAAATTTTCCTAATCTTTCTGTTCAAGCGCCATCTAC”, the binding signal is 0.908 RPM ratio (pull-down/input).

With “GATGATTGTTCTCCCAGCTGATGAATTCTGAGTCTCGAGTAAACAAATTTTCCTAATCTTTCTGTTCAAGCGCCATCTAC”, the binding signal is 0.814 RPM ratio (pull-down/input).

For “GATGATTGTTCTCCCAGCTGATGAATTAGCGAGATCGAGTAAACAAATTTTCCTAATCTTTCTGTTCAAGCGCCATCTAC”, the binding signal is 0.803 RPM ratio (pull-down/input).

With “GATGATTGTTCTCCCAGCTGATGAATTTGTCCTGTCGAGTAAACAAATTTTCCTAATCTTTCTGTTCAAGCGCCATCTAC”, the binding signal is 0.967 RPM ratio (pull-down/input).

On to “GATGATTGTTCTCCCAGCTGATGAATTCAGCATATCGAGTAAACAAATTTTCCTAATCTTTCTGTTCAAGCGCCATCTAC”, for which the binding signal is 1 RPM ratio (pull-down/input).

As for “GATGATTGTTCTCCCAGCTGATGAATTATCGAAGTCGAGTAAACAAATTTTCCTAATCTTTCTGTTCAAGCGCCATCTAC”, the binding signal was 0.927 RPM ratio (pull-down/input).

On to “GATGATTGTTCTCCCAGCTGATGAATTTGGGCCTTCGAGTAAACAAATTTTCCTAATCTTTCTGTTCAAGCGCCATCTAC”, for which the binding signal was 0.874 RPM ratio (pull-down/input).

“GATGATTGTTCTCCCAGCTGATGAATTTGTAGCCTCGAGTAAACAAATTTTCCTAATCTTTCTGTTCAAGCGCCATCTAC”: the binding signal was 1.08 RPM ratio (pull-down/input).

Turning to “GATGATTGTTCTCCCAGCTGATGAATTCGTGAATTCGAGTAAACAAATTTTCCTAATCTTTCTGTTCAAGCGCCATCTAC”, the binding signal was 0.888 RPM ratio (pull-down/input).

For the sequence “GATGATTGTTCTCCCAGCTGATGAATTTGTCAAATCGAGTAAACAAATTTTCCTAATCTTTCTGTTCAAGCGCCATCTAC”, the binding signal is 1.17 RPM ratio (pull-down/input).

For “GATGATTGTTCTCCCAGCTGATGAATTAGTACTGTCGAGTAAACAAATTTTCCTAATCTTTCTGTTCAAGCGCCATCTAC”, the binding signal is 1 RPM ratio (pull-down/input).

For “GATGATTGTTCTCCCAGCTGATGAATTCTGGTCTTCGAGTAAACAAATTTTCCTAATCTTTCTGTTCAAGCGCCATCTAC”, the binding signal was 0.828 RPM ratio (pull-down/input).

For “GATGATTGTTCTCCCAGCTGATGAATTCGGGGAGTCGAGTAAACAAATTTTCCTAATCTTTCTGTTCAAGCGCCATCTAC”, the binding signal was 0.762 RPM ratio (pull-down/input).

Consider “GATGATTGTTCTCCCAGCTGATGAATTCGGGTTATCGAGTAAACAAATTTTCCTAATCTTTCTGTTCAAGCGCCATCTAC”, for which the binding signal is 0.898 RPM ratio (pull-down/input).

For the sequence “GATGATTGTTCTCCCAGCTGATGAATTCGTACAATCGAGTAAACAAATTTTCCTAATCTTTCTGTTCAAGCGCCATCTAC”, the binding signal is 1.16 RPM ratio (pull-down/input).

“GATGATTGTTCTCCCAGCTGATGAATTCGCAGCTTCGAGTAAACAAATTTTCCTAATCTTTCTGTTCAAGCGCCATCTAC”: the binding signal is 0.825 RPM ratio (pull-down/input).

Turning to “GATGATTGTTCTCCCAGCTGATGAATTAGTTTAGTCGAGTAAACAAATTTTCCTAATCTTTCTGTTCAAGCGCCATCTAC”, the binding signal is 0.952 RPM ratio (pull-down/input).

For “GATGATTGTTCTCCCAGCTGATGAATTTCATGTTTCGAGTAAACAAATTTTCCTAATCTTTCTGTTCAAGCGCCATCTAC”, the binding signal is 0.998 RPM ratio (pull-down/input).

With “GATGATTGTTCTCCCAGCTGATGAATTAAAGTTCTCGAGTAAACAAATTTTCCTAATCTTTCTGTTCAAGCGCCATCTAC”, the binding signal was 0.927 RPM ratio (pull-down/input).

In the case of “GATGATTGTTCTCCCAGCTGATGAATTACACCCCTCGAGTAAACAAATTTTCCTAATCTTTCTGTTCAAGCGCCATCTAC”, the binding signal was 1.13 RPM ratio (pull-down/input).

For the sequence “GATGATTGTTCTCCCAGCTGATGAATTAGGGCTTTCGAGTAAACAAATTTTCCTAATCTTTCTGTTCAAGCGCCATCTAC”, the binding signal is 0.909 RPM ratio (pull-down/input).

On to “GATGATTGTTCTCCCAGCTGATGAATTGCGCTCATCGAGTAAACAAATTTTCCTAATCTTTCTGTTCAAGCGCCATCTAC”, for which the binding signal was 1.09 RPM ratio (pull-down/input).

For the sequence “GATGATTGTTCTCCCAGCTGATGAATTATCTGCATCGAGTAAACAAATTTTCCTAATCTTTCTGTTCAAGCGCCATCTAC”, the binding signal was 1.27 RPM ratio (pull-down/input).

In the case of “GATGATTGTTCTCCCAGCTGATGAATTGCCGTTGTCGAGTAAACAAATTTTCCTAATCTTTCTGTTCAAGCGCCATCTAC”, the binding signal was 1.16 RPM ratio (pull-down/input).

On to “GATGATTGTTCTCCCAGCTGATGAATTGGGATGGTCGAGTAAACAAATTTTCCTAATCTTTCTGTTCAAGCGCCATCTAC”, for which the binding signal was 0.863 RPM ratio (pull-down/input).

With “GATGATTGTTCTCCCAGCTGATGAATTTTTACAATCGAGTAAACAAATTTTCCTAATCTTTCTGTTCAAGCGCCATCTAC”, the binding signal was 1.23 RPM ratio (pull-down/input).

Take “GATGATTGTTCTCCCAGCTGATGAATTCCCGTGATCGAGTAAACAAATTTTCCTAATCTTTCTGTTCAAGCGCCATCTAC”: the binding signal is 0.851 RPM ratio (pull-down/input).

With “GATGATTGTTCTCCCAGCTGATGAATTGCCCCTTTCGAGTAAACAAATTTTCCTAATCTTTCTGTTCAAGCGCCATCTAC”, the binding signal was 0.958 RPM ratio (pull-down/input).

For “GATGATTGTTCTCCCAGCTGATGAATTCTGAATGTCGAGTAAACAAATTTTCCTAATCTTTCTGTTCAAGCGCCATCTAC”, the binding signal was 0.902 RPM ratio (pull-down/input).

In the case of “GATGATTGTTCTCCCAGCTGATGAATTCGTGAAATCGAGTAAACAAATTTTCCTAATCTTTCTGTTCAAGCGCCATCTAC”, the binding signal was 0.972 RPM ratio (pull-down/input).
